The antibiotic and cytotoxicity screens of Wong et al. (2023)
The list shows a part of the results.

Each compound was assayed on HSkMC (human skeletal muscle cells) (assay: cytotoxicity call (relative viability < 0.9)). Settings: 10 µM.
C[C@@H]1CN([C@H](C)CO)C(=O)Cc2cc(NC(=O)Cn3cnnn3)ccc2O[C@@H]1CN(C)Cc1ccc(C(=O)Nc2ccccc2N)cc1 was tested, and the cytotoxicity call was “inactive”. CC(C)NC(=O)N(C)C[C@H]1Oc2ccc(NC(=O)CCN3CCOCC3)cc2C(=O)N([C@H](C)CO)C[C@@H]1C was tested, and the cytotoxicity call was “inactive”. With C[C@H](CO)N1C[C@H](C)[C@H](CN(C)Cc2ccc(Oc3ccccc3)cc2)Oc2ccc(NC(=O)CCCN(C)C)cc2CC1=O the cytotoxicity call was “inactive”. With COc1ccc(NC(=O)Nc2cccc3c2O[C@@H](CN(C)C(=O)Nc2cccc4ccccc24)[C@H](C)CN([C@H](C)CO)C3=O)cc1 the cytotoxicity call was “inactive”. Cc1ccc(S(=O)(=O)N(C)C[C@H]2OCCCC[C@@H](C)Oc3ccc(NC(=O)Nc4ccc(C(F)(F)F)cc4)cc3C(=O)N([C@H](C)CO)C[C@@H]2C)cc1 was tested, and the cytotoxicity call was “inactive”. For CC(O)C(N)C(=O)O (stereo not given), the cytotoxicity call was “inactive”. Nc1nc(=O)c2ncn(COC(CO)CO)c2[nH]1 was tested, and the cytotoxicity call was “inactive”. With CC(C)CC#Cc1ccc2c(c1)O[C@@H](CN(C)C(=O)NC1CCCC1)[C@H](C)CN([C@@H](C)CO)S2(=O)=O the cytotoxicity call was “inactive”. C=CC(C)(O)CCC1C(C)(O)CCC2C(C)(C)CCCC21C (stereo not given) was tested, and the cytotoxicity call was “inactive”. With CO[C@H]1CN(C)C(=O)c2ccc(NS(=O)(=O)c3cn(C)cn3)cc2OC[C@@H](C)N(Cc2cccc(F)c2)C[C@@H]1C the cytotoxicity call was “inactive”. C[C@H](CO)N1C[C@H](C)[C@H](CN(C)Cc2ccc(C(F)(F)F)cc2)Oc2ccc(NC(=O)Cc3ccccc3)cc2CC1=O was tested, and the cytotoxicity call was “inactive”. With C[C@@H]1CCCCO[C@H](CN(C)C(=O)Nc2ccc(C(F)(F)F)cc2)[C@@H](C)CN([C@H](C)CO)C(=O)c2cc(NC(=O)CCC(F)(F)F)ccc2O1 the cytotoxicity call was “inactive”. In the case of C[C@H]1CN([C@@H](C)CO)C(=O)Cc2cc(NC(=O)Cc3cn(C)c4ccccc34)ccc2O[C@@H]1CN(C)Cc1ccc(C(=O)Nc2ccccc2N)cc1, the cytotoxicity call is reported as “inactive”. With COc1ccc(NC(=O)N(C)C[C@H]2Oc3c(NC(=O)Nc4cccc5ccccc45)cccc3C(=O)N([C@H](C)CO)C[C@@H]2C)cc1 the cytotoxicity call was “inactive”. For CN1CCC(=C2c3ccccc3CC(=O)c3sccc32)CC1.O=C(O)C=CC(=O)O, the cytotoxicity call was “inactive”. C[C@@H]1CCCCO[C@H](CN(C)S(C)(=O)=O)[C@@H](C)CN([C@@H](C)CO)C(=O)c2cc(N(C)C)ccc2O1 was tested, and the cytotoxicity call was “inactive”. In the case of C[C@@H]1CCCCO[C@H](CN(C)C(=O)C2CCCCC2)[C@H](C)CN([C@@H](C)CO)C(=O)c2cc(NC(=O)Nc3ccc(F)cc3)ccc2O1, the cytotoxicity call is reported as “inactive”. In the case of CC(C)(C)[S@@](=O)N1Cc2cc(C(=O)N3CCc4ccccc4C3)nc(-c3cccc(-c4cncnc4)c3)c2[C@H]1CCO, the cytotoxicity call is reported as “inactive”. With C[C@@H]1CN([C@@H](C)CO)C(=O)c2cc(Br)cnc2O[C@H]1CN(C)Cc1ccccc1C(=O)O the cytotoxicity call was “inactive”. With C=CCN1C(=O)[C@@H]2[C@@H](C1=O)[C@@H]1C=C[C@@H]2C1 the cytotoxicity call was “inactive”. In the case of O=C(C[C@H]1CC[C@H]2[C@@H](COC[C@H](O)CN2Cc2cc(F)ccc2F)O1)N[C@@H]1CCN(Cc2ccccc2)C1, the cytotoxicity call is reported as “inactive”. With COc1ccc([Si](C)(C)[C@@H]2[C@@H](CCOC(=O)NCCCCCC(=O)NO)O[C@@]3(C(=O)N(Cc4ccccc4)c4ccc(NC(=O)[C@@H](C)OC(=O)NCCCCCC(=O)NO)cc43)[C@H]2C)cc1 the cytotoxicity call was “inactive”. For CC[C@@](C)(Nc1n[nH]c(=O)[nH]c1=O)C(=O)O, the cytotoxicity call was “inactive”. With C[C@H]1CN([C@@H](C)CO)C(=O)c2cccc(NC(=O)C3CC3)c2O[C@H]1CN(C)Cc1ccc2c(c1)OCO2 the cytotoxicity call was “inactive”. For CC(C)NC(=O)N(C)C[C@@H]1OCCCC[C@@H](C)Oc2ccc(NC(=O)Nc3ccccc3)cc2C(=O)N([C@H](C)CO)C[C@@H]1C, the cytotoxicity call was “inactive”. In the case of COc1ccc(NC(=O)Nc2ccc3c(c2)CC(=O)N([C@@H](C)CO)C[C@H](C)[C@@H](CN(C)C(=O)Nc2cccc4ccccc24)O3)cc1, the cytotoxicity call is reported as “inactive”. C[C@H](CO)N1C[C@H](C)[C@@H](CN(C)S(=O)(=O)c2cccs2)OCCCC[C@H](C)Oc2ccc(NC(=O)Cc3ccccc3)cc2C1=O was tested, and the cytotoxicity call was “inactive”. For C[C@@H]1CN([C@@H](C)CO)S(=O)(=O)c2ccc(C3=CCCC3)cc2O[C@@H]1CN(C)C(=O)c1cnccn1, the cytotoxicity call was “inactive”. In the case of Cc1noc(C)c1S(=O)(=O)N(C)C[C@@H]1Oc2ccc(NS(=O)(=O)c3cn(C)cn3)cc2CC(=O)N([C@@H](C)CO)C[C@H]1C, the cytotoxicity call is reported as “inactive”. With C[C@H]1CN([C@@H](C)CO)C(=O)c2cc(C#Cc3ccccc3)cnc2O[C@H]1CN(C)S(=O)(=O)c1ccccc1F the cytotoxicity call was “inactive”. In the case of CO[C@@H]1CN(C)C(=O)c2cc(NS(=O)(=O)c3ccccc3)ccc2OC[C@H](C)N(C(=O)NC(C)C)C[C@H]1C, the cytotoxicity call is reported as “inactive”. In the case of COc1ccc(S(=O)(=O)Nc2ccc3c(c2)C(=O)N([C@@H](C)CO)C[C@H](C)[C@@H](CN(C)C(=O)Nc2cccc4ccccc24)OCCCC[C@@H](C)O3)cc1, the cytotoxicity call is reported as “inactive”. For Cc1ccc(S(=O)(=O)Nc2cccc3c2O[C@@H](CN(C)C(=O)Nc2cccc4ccccc24)[C@H](C)CN([C@@H](C)CO)C3=O)cc1, the cytotoxicity call was “inactive”. For O=[N+]([O-])c1ccc(/C=C/CN(C/C=C/c2ccc([N+](=O)[O-])cc2)CCNS(=O)(=O)c2cccc3cnccc23)cc1, the cytotoxicity call was “inactive”. Cc1noc(C)c1NC(=O)N[C@@H]1CC[C@H](CC(=O)NCCCN(C)C)O[C@H]1CO was tested, and the cytotoxicity call was “inactive”. With O=S1(=O)CC[C@H](N[C@H]2CCS(=O)(=O)C2)C1 the cytotoxicity call was “inactive”. With CCOC(=O)c1c(CN2CCN(Cc3ccccc3)CC2)n(-c2ccccc2)c2cc(Br)c(O)cc12 the cytotoxicity call was “inactive”. For COc1ccccc1NC(=O)N(C)C[C@@H]1Oc2ncc(C#CCN(C)C)cc2C(=O)N([C@H](C)CO)C[C@@H]1C, the cytotoxicity call was “inactive”. With C[C@H]1CCCCO[C@@H](CN(C)C(=O)Nc2ccc3c(c2)OCO3)[C@@H](C)CN([C@@H](C)CO)C(=O)c2cc(NS(=O)(=O)c3ccc(F)cc3)ccc2O1 the cytotoxicity call was “inactive”. For C[C@@H]1CCCCO[C@@H](CN(C)C(=O)C2CCCCC2)[C@@H](C)CN([C@@H](C)CO)C(=O)c2cc(NC(=O)c3ccccc3)ccc2O1, the cytotoxicity call was “inactive”.
